# Results from the supplement of paper PMC3334620.
# The full ranking holds about 33,000 sequences; the median of “E-score (-0.5 to 0.5)” is about -0.016, and the highest 2% start at about 0.32. This is one part of the list.
# Molecular target: T1, Stp1 (UniProt B3LFK1)
# T1 sequence: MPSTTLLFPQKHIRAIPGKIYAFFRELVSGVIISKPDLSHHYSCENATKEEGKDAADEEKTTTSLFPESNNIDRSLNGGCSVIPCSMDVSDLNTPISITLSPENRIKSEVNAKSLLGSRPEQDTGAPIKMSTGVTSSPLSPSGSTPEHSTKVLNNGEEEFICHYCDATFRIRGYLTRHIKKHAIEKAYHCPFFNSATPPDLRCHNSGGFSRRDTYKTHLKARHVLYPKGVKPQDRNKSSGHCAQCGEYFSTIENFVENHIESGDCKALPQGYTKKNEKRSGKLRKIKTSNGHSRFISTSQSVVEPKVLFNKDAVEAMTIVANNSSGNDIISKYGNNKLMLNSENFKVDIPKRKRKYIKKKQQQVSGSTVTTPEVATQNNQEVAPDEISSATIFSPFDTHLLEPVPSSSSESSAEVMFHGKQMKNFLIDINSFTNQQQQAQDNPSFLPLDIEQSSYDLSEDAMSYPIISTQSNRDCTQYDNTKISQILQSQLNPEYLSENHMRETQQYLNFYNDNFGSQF
# Assay: PBM E-score (8-mer binding enrichment) (E-score (-0.5 to 0.5)); higher = stronger / more preferred TF binding; most listed sequences are background and not binding sites
# Details: protein concentration: 200 nM; construct: GST-full length
# Procedure: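 Universal 'all 10-mer' protein binding microarrays (Agilent AMADID 015681) probed with GST-tagged S. cerevisiae TFs (full-length or DBD) made by in vitro transcription/translation (PURExpress), about 100-200 nM. Bound TF was detected with fluorescent anti-GST. Each ungapped 8-mer (which stands for itself and its reverse complement) is scored by the PBM enrichment score (E-score), a modified Wilcoxon-Mann-Whitney statistic from -0.5 to +0.5, computed with the Universal PBM Analysis Suite. Scale: above 0.35 generally sequence-specific binding.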
row,Sequence,PBM E-score
1,CCCGTCCA,-0.00501
2,GATAAGTA,0.0808
3,ATTCCAGG,-0.184
4,AACCCCAA,-0.0751
5,ACCTGTAC,-0.0987
6,GAATGGTC,-0.124
7,ACAATGGT,-0.255
8,CCATAGTC,-0.237
9,AAGCGATT,0.00901
10,TACGGCAA,0.449
11,AGGCTGTC,-0.113
12,CCAGGGTC,-0.279
13,CGAACGAC,-0.0857
14,CCTGACAA,-0.148
15,CCCGCATC,-0.152
16,GATCCGCA,0.0225
17,TAGGACGA,-0.0746
18,CCGACCGC,-0.224
19,ACCCAGGG,-0.244
20,TAACATCA,0.0945
21,GAATCCGC,0.00548
22,GTCTGACA,-0.0335
23,ACGCGTCA,-0.0208
24,CTGCGGGA,-0.311
25,ATTCGTGG,-0.0218

row,Sequence,PBM E-score
1,GCCTACAC,-0.0439
2,GCATCACA,0.161
3,GTCTTGCA,-0.103
4,AGCTCGCC,-0.117
5,AATCTACT,0.173
6,GCATCGAA,0.0746
7,ACGTGAGC,-0.178
8,AGACCGTG,0.0238
9,AGACATGC,-0.147
10,AACTCTCC,-0.128
11,GCTACCAC,-0.0354
12,CAGCTGTC,0.0571
13,AGGTGCAT,-0.0728
14,AACACCGA,-0.07
15,AAGGGGTA,-0.319
16,CGAAACAG,0.0069
17,TGCGTGAA,0.117
18,ATACCGTC,0.0874
19,CAATTGTG,0.14
20,AAGTCTCC,-0.218
21,CATGAGCA,-0.0493
22,ATGCATGA,0.103
23,CTAGACTC,-0.365
24,AAGCCTAA,-0.0724
25,TAAACTCA,0.0936

row,Sequence,PBM E-score
1,CGGCGCCG,0.484
2,CGAGTCAA,-0.0183
3,CGACTACG,-0.125
4,CTGATACA,0.0538
5,CGCAGATC,-0.0162
6,AAACTCAT,0.0571
7,AGCCACAC,0.151
8,CGGCGTCC,0.376
9,AGTCGCCC,-0.174
10,ACCGCTAC,-0.229
11,CGAGCCCA,-0.215
12,TATAAAAA,0.22
13,AGAGGTAG,-0.301
14,AAGTCATT,-0.108
15,CAATGAGC,-0.114
16,GCTGGTAA,-0.203
17,CGGCATCA,0.438
18,AGTCGGAT,-0.129
19,CGCTATGA,-0.0471
20,ATGCTAGG,-0.129
21,CTCGAGAA,-0.00756
22,GTAAAACA,0.00796
23,AGTAGTTA,-0.0271
24,CGAGGGTA,-0.264
25,TAATATGA,0.0999

row,Sequence,PBM E-score
1,ACTATACA,-0.00578
2,ACAGCTTA,-0.112
3,CTTGAAGA,-0.038
4,CGTAATGA,0.0127
5,ATAAGGAT,0.132
6,AAGTACTA,0.152
7,AATGACGT,-0.0426
8,ATAGCTAT,-0.234
9,CATCCGCG,0.13
10,ATTGCGTA,0.0955
11,AAGTGGCC,-0.0466
12,TGATCCAA,0.0995
13,TAGTCCCA,-0.328
14,GATTCCTA,0.0649
15,AACCCAAC,-0.128
16,ACTAGAAA,0.0739
17,ACTTTGAC,0.0343
18,ATGAAGCA,-0.267
19,CTCAATAC,-0.0266
20,GTTCATGA,0.111
21,ATGCTCAG,-0.12
22,AGCAGAAA,0.13
23,AGAGATGA,-0.0454
24,AGCGCATG,-0.176
25,CATTAGCG,0.0896

row,Sequence,PBM E-score
1,ACAAACAC,0.15
2,CCTTTTCC,0.0552
3,GTTGCTGA,0.123
4,AACCAGCG,-0.116
5,AGGGATAC,-0.139
6,GGTCAACA,-0.2
7,CATTTTGC,0.192
8,CATCAACC,0.0183
9,CAACACCA,0.0363
10,GGTGATGA,-0.0409
11,TACGAGCA,-0.163
12,GGAGATGA,-0.244
13,AAACGAAC,0.125
14,CGCTACCA,-0.0319
15,CGAGGTAC,-0.0775
16,AAATGGGC,-0.0421
17,CTACTTCC,-0.0828
18,TAGTGATA,-0.198
19,ATATTCTA,0.2
20,AGCTGACG,0.0152
21,CGACATGA,-0.089
22,TAGCTTCA,-0.0979
23,GGACCAAC,-0.0805
24,CTTCATTA,0.247
25,CGTAAACA,0.156

row,Sequence,PBM E-score
1,GTATGTGA,0.0774
2,GTCAGGTA,0.0267
3,ATAGAGCA,0.0151
4,ACGCTACG,-0.0233
5,GACGTAGC,-0.149
6,CTGTCCTC,-0.168
7,CATATGTA,0.119
8,AGAGAATA,0.0574
9,AGTAATTC,0.104
10,AGTCGAGC,-0.138
11,AAACATTG,0.103
12,CACATCGG,-0.152
13,AGCATCTA,-0.18
14,GGCACCTA,0.132
15,CTATCCAA,-0.0659
16,AATAAGGG,-0.186
17,AACATCGG,-0.113
18,TCCCTTCA,-0.237
19,ACACCCAG,-0.32
20,ATTTAAGC,0.0936
21,CGAATCCA,-0.106
22,TGTATACA,0.0489
23,GCAGCCTA,-0.0881
24,GTGCATTA,0.171
25,CGCTATTC,0.146

row,Sequence,PBM E-score
1,AATGCCTC,0.308
2,CAGCCGTC,0.175
3,ATTGTATG,0.0554
4,ACGAGTTA,0.0777
5,CCCCAAGA,-0.0379
6,GCAGCTTA,-0.0128
7,AAATTGTA,0.0555
8,TAGTAACA,0.0813
9,TAATGGTA,0.0156
10,CCTCCCAC,-0.132
11,GTCTAGAC,-0.158
12,TAATTGCA,0.0783
13,ATACCGCC,0.1
14,ATCTGGCC,-0.278
15,GTCTTGTA,0.0211
16,AGCACGAA,0.0412
17,CCACCCAC,0.0467
18,AGTGAGGC,0.203
19,GCCTGCTA,-0.0816
20,AGGTTCTC,-0.122
21,CTTCGGCA,0.24
22,AGATTACC,0.0788
